Laboratory results reported in the RNAGym collection of RNA variant scans (doi:10.1093/nar/gkz1192).
Read counts are not given, so values of variants with three or more changes are uncertain.

B1: CPEB3 Ribozyme (parent)
chain: UAACAGGGGGCCACAGCAGAAGCGUUCACGUCGCAGCCCCUGUCAGAUUCUGGUGAAUCUGCGAAUUCUGCUGUAUAUCUC

Variants of: B1
Test: self-cleavage, relative activity (ratio to wild type); higher = more cleavage; in vitro, sequencing
How it was run: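 For each CPEB3 ribozyme variant, relative activity is its cleaved/total read fraction divided by the unmutated ribozyme's. Barcoded error-prone PCR libraries were transcribed by T7 RNA polymerase (5 hours, 37°C) and held in DNase I for 15 min before an EDTA stop, with cleavage occurring throughout. Template-switching reverse transcription and Illumina sequencing were used to read the RNAs. A 5-read minimum applied, and results are the mean of three batches.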

Row | Variant | self-cleavage
1 | UAACAGGGGGCCUCUGCAGAAGCGUUCACGUCGCAGCCCCGGUCUGAUUCUGGUGAAUCUGCGAAUUCUGCUGUAUAUCUC [A13U A15U U41G A45U] | 0.06
2 | UAACAGGGGGCCUCUGCAGAAGCGUUCACGUCGCAGCCCCUGCCAGAUUCUGGUGAAUCUGCGAGUUCAGCCGUAUAACUC [A13U A15U U43C A65G U69A U72C U78A] | 0.11
3 | UAACAGGGGGCCUCUGCAGAAGCGUUCACGUCGCAGCCCCUGCCAGAUUCUGGUGAAUCUGCGAAUUCUGCUGUAUAUUUC [A13U A15U U43C C79U] | 0.67
4 | UAACAGGGGGCCUCUGCAGAAGCGUUCACGUCGCAGCCCCUGUCAGAUUCCGAUGAAUCUGCGAAUUCUGCUGCAUAUCUC [A13U A15U U51C G53A U74C] | 0.77
5 | UAACAGGGGGCCUCAGCCGAAGCGUUCACGUCGCAGCCCCUGUCAGAUUCUGGUGAGUCUGCGAGUUCUGCUGUAUAUCUC [A13U A18C A57G A65G] | 0.14
6 | UAACAGGGGGCCUCAGCGGAAGCGUUCGCGUCGCCGCCCCUGUCAGAUUCUGGUGAAUCUGCGUAUUCUGCUGUAUAUCUC [A13U A18G A28G A35C A64U] | 0.1
7 | UAACAGGGGGCCUCAGCGGAAGCGUUCUCGUCGCAGCCCCAGUCAGAUUCUGGUGAAUCUGCGAAUUCUGCUGUAUAUCUC [A13U A18G A28U U41A] | 0.18
8 | UAACAGGGGGCCUCAGCGGAAGCGUUCACGUCGCUGCCCCUGUCAGAUACUGGUGAAUCUGCGAAUUCUGCUGUGUGUCUC [A13U A18G A35U U49A A75G A77G] | 0.09
9 | UAACAGGGGGCCUCAGCGGAAGCGUUCACGUCGCAGCCCCUGUUAGAUUCUGGUGGAUCUGCGAAUUCUGCUGUAUAUCUC [A13U A18G C44U A56G] | 0.17
10 | UAACAGGGGGCCUCAGCGGAAGCGUCCACGUCACAGCCCCUGUCAGAUUCUGGUGAAUCUGCGAAUUCCGCUGUAUAUCUC [A13U A18G U26C G33A U69C] | 0.12
11 | UAACAGGGGGCCUCAGCGGAAGCGUUCACGCCGCAGCCCCUGUCAGAUUCUGGUGAAUCUGCGAAUUCUGCCGUAUAUCUC [A13U A18G U31C U72C] | 0.13
12 | UAACAGGGGGCCUCAGCGGAAGCGUUCACGUCGCAGCCCCUGCCAGAUUCUGGUGAACCUGCGAAUACUGCUGUAUACCUC [A13U A18G U43C U58C U67A U78C] | 0.22
13 | UAACAGGGGGCCUCAGCGGAAGCGUUCACGUCGCAGCCCCUGUCAGAUUCCGGUGAAUCUGCGAAUUCUGCUGUAUAUCUC [A13U A18G U51C] | 0.87
14 | UAACAGGGGGCCUCAGCGGAAGCGUUCACGUCGCAGCCCCUGUCAGAUUCUGGUGAAUCUGCGAAUUCUGCCGUAUAUCUC [A13U A18G U72C] | 0.5
15 | UAACAGGGGGCCUCAGCUGAGGAGUUCACGACGCAGCCCCUGUCGGAUUCUGGUGAAUCUGCGAAUACUGCUGUAUAUCUC [A13U A18U A21G C23A U31A A45G U67A] | 0.08
16 | UAACAGGGGGCCUCAGCUGAAGCGUUCUCGUCGCAGCCCCUGUAAGAUUCUGGUGAAUCCGCGAAUUCUGCUGUAUAUCUC [A13U A18U A28U C44A U60C] | 0.12
17 | UAACAGGGGGCCUCAGCUGAAGCGUUCUCGUCGCAGCCCCCGUCAGAUUCUGGUGUAUCUGCGAAUUCUGCUGUAUAUCUC [A13U A18U A28U U41C A56U] | 0.09

Row | Variant | self-cleavage
18 | UAACAGGGGGCCUCAGCUGAAGCGUUCACGUCGCGGCCCCUGUCAGAUUCUAGUGAAUCUGGGAAUUCUGCUGUAUAUCUC [A13U A18U A35G G52A C62G] | 0.13
19 | UAACAGGGGGCCUCAGCUGAAGCGUUCACGUCGCGGCCCCUGUCAGAUUCUGGUGAAUCUCCGAAUUCUGCUGUAUAUCUC [A13U A18U A35G G61C] | 0.34
20 | UAACAGGGGGCCUCAGCUGAAGCGUUCACGUCGCUGCCCCUGUCAGAUUCUGGCGAAUCUGCGAAUUCUGCUGUAUACCUC [A13U A18U A35U U54C U78C] | 0.13
21 | UAACAGGGGGCCUCAGCUGAAGCGUUCACGUCGCAGCCCCUGUCCGAUUCUGGUGACUCUGCGGAUUCUGCUGUAUAUCCC [A13U A18U A45C A57C A64G U80C] | 0.03
22 | UAACAGGGGGCCUCAGCUGAAGCGUUCACGUCGCAGCCCCUGUCAGAUUCUGGUGAAUCUGCGAAUUCUCCUGUAUAUCAC [A13U A18U G70C U80A] | 0.08
23 | UAACAGGGGGCCUCAGCUGAAGCGUCCACGUCGCAGCCCCCGUCAGAUUCUGGUGAAUCUGCGAAUUCUGCUGUGUAUCUC [A13U A18U U26C U41C A75G] | 0.08
24 | UAACAGGGGGCCUCAGCUGAAGCGUUCACGUCGCAGCCCCUGUCAGAUCCUGGUGAACCUGCGAAUUCUGCUGUAUUCCUC [A13U A18U U49C U58C A77U U78C] | 0.11
25 | UAACAGGGGGCCUCAGCUGAAGCGUUCACGUCGCAGCCCCUGUCAGAUUCUGGUGAAUCUGCGAAUCCUGCUGUAUAUCUC [A13U A18U U67C] | 0.14
26 | UAACAGGGGGCCUCAGCUGAAGCGUUCACGUCGCAGCCCCUGUCAGAUUCUGGUGAAUCUGCGAAUUCCGCUGUAUAUCUC [A13U A18U U69C] | 0.27
27 | UAACAGGGGGCCUCAGCAGCAGCGUUCACGACGCAGCCCCUGUCAGAUUCUGGUGAAUCUGCGAAUUCUGCUGUAUAUCUC [A13U A20C U31A] | 0.12
28 | UAACAGGGGGCCUCAGCAGGAGCGUUCGCGUCGCAGCCCCUGUCUGAUUCUGGUGAAUCUGCGAAUUCUGCUGUAUAUCUC [A13U A20G A28G A45U] | 0.19
29 | UAACAGGGGGCCUCAGCAGGAGCGUUCACGUCGCAGCCCCUGUCAGAUUCUGGUGAAUCUGCGACUUCUGCUGUAUAUCUC [A13U A20G A65C] | 0.31
30 | UAACAGGGGGCCUCAGCAGGAGCGUUCACGUCGCAGCCCCUGUCAGAUUCUGGUGAAUCUGCGAAUUCUGCUGUAUUCCUC [A13U A20G A77U U78C] | 0.73
31 | UAACAGGGGGCCUCAGCAGGAGCGUUCACGUCGCAGCCCCAGUCAGAUUCUGGUGAAUCUGCGAAUUCUGCUGUAUAUCUC [A13U A20G U41A] | 0.26
32 | UAACAGGGGGCCUCAGCAGGAGCGUUCACGUCGCAGCCCCAGUCGGAUUCUGGUGAAUAUGCGAAUUCUGCUGUAUAACUC [A13U A20G U41A A45G C59A U78A] | 0.06
33 | UAACAGGGGGCCUCAGCAGGAGCGUUCACGUCGCAGCCCCCGCCAGAUUCUGGUGAAUCUGCGAAUUCUGCUGUAUAUCUC [A13U A20G U41C U43C] | 0.31
34 | UAACAGGGGGCCUCAGCAGGAGCGUUCACGUCGCAGCCCCUGCCAGAUUCAGAUGAAUCUGCGAAUUCUGCUGUGUAUCCC [A13U A20G U43C U51A G53A A75G U80C] | 0.48
